The supplement of paper PMC12217912
Some of the results follow. Sequences were assembled here from the parent chain. Values near 0.05 are background.

B1: TEV protease; numbered along this chain (parent)
chain: MGESLFKGPRDYNPISSSICHLTNESDGHTTSLYGIGFGPFIITNKHLFRRNNGTLVVQSLHGVFKVKDTTTLQQHLVDGRDMIIIRMPKDFPPFPQKLKFREPQREERICLVTTNFQTKSMSSMVSDTSCTFPSGDGIFWKHWIQTKDGQCGSPLVSTRDGFIVGIHSASNFTNTNNYFTSVPKNFMELLTNQEAQQWVSGWRLNADSVLWGGHKVFMVKPEEPFQPVKEATQL

Variants of: B1
Test: raw area under fraction-flipped curve 0-4 h after induction (AUC4h, not background-subtracted), DNA-recorder readout of cleavage of the substrate (dimensionless); higher = more cleavage of the substrate by the protease variant
Conditions: temperature: 34 °C; time window: 0-4 h after rhamnose induction
Method: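 In vivo DNA recorder in E. coli TOP10(DE3) ΔrhaA at 34 °C. Each TEVp single-site mutant (parent TEVp 0) is paired with a single-site variant of the 7-mer TEVs (canonical ENLYFQ|S). The substrate sits between flexible linkers in a Bxb1-sfGFP-TEVs-SsrA fusion, so cleavage stabilises Bxb1 and speeds flipping of a recombination array, read by NGS. The value is the raw area under the fraction-flipped curve over 0-4 h after rhamnose induction (AUC4h), with ≥20 reads per time point. It is not background-subtracted; inactive controls average about 0.047.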
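Note: Bxb1 expression induced with 0.2% (w/v) L-rhamnose at OD600 near 0.5, cultures sampled hourly, flipped fraction per protease–substrate barcode pair counted by paired-end Illumina sequencing.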

Row | Variant | area with substrate ANLYFQS | area with substrate CNLYFQS | area with substrate DNLYFQS | area with substrate HNLYFQS | area with substrate LNLYFQS | area with substrate MNLYFQS | area with substrate QNLYFQS | area with substrate RNLYFQS | area with substrate TNLYFQS | area with substrate GNLYFQS | area with substrate INLYFQS | area with substrate PNLYFQS | area with substrate SNLYFQS | area with substrate WNLYFQS | area with substrate YNLYFQS | area with substrate FNLYFQS | area with substrate NNLYFQS | area with substrate KNLYFQS | area with substrate VNLYFQS
1 | H143R | 0.0601 | 0.0524 | 0.0719 | 0.0459 | 0.0746 | 0.0493 | 0.0568 | 0.0755 | 0.0601 |  |  |  |  |  |  |  |  |  | 
2 | I167W | 0.072 | 0.0598 | 0.0353 | 0.0521 | 0.0658 | 0.0554 |  | 0.0563 | 0.0628 | 0.0593 | 0.0593 | 0.0569 | 0.0557 | 0.0585 | 0.0583 |  |  |  | 
3 | D91P | 0.0665 | 0.0726 | 0.0714 | 0.0898 |  | 0.0483 |  |  |  |  | 0.0749 | 0.0794 |  | 0.0683 |  | 0.0745 | 0.0693 |  | 
4 | F226W | 0.0712 | 0.078 | 0.0832 | 0.0696 | 0.0591 |  | 0.0632 |  | 0.0676 | 0.061 | 0.0601 | 0.0362 | 0.0857 | 0.0611 | 0.0615 |  |  | 0.0495 | 0.0598
5 | H143P | 0.0496 | 0.0483 | 0.0523 | 0.0495 | 0.0604 | 0.059 |  |  | 0.0507 |  | 0.0539 | 0.0505 | 0.061 | 0.0486 | 0.0574 |  | 0.0515 | 0.0597 | 
6 | K221I | 0.0306 | 0.0567 | 0.0796 | 0.0531 | 0.0339 | 0.0623 |  | 0.0583 | 0.0789 | 0.0454 |  | 0.0655 |  | 0.0618 | 0.0464 | 0.0622 |  | 0.0652 | 0.0636
7 | T114F | 0.0512 | 0.0679 | 0.0691 | 0.0638 | 0.0804 |  |  |  | 0.0742 | 0.0655 |  | 0.0675 |  |  | 0.0444 |  | 0.0612 | 0.0601 | 0.0374
8 | K142S | 0.0614 | 0.0719 | 0.0808 | 0.0624 | 0.0598 | 0.0593 |  |  | 0.0629 | 0.0665 | 0.0737 | 0.0777 | 0.0748 | 0.0587 | 0.0886 | 0.0678 | 0.0518 | 0.078 | 0.064
9 | G150R | 0.0681 | 0.0674 | 0.0594 | 0.0578 | 0.052 | 0.0543 |  |  | 0.0647 | 0.0528 | 0.056 | 0.0502 | 0.0551 | 0.0608 | 0.0517 | 0.0531 | 0.0648 | 0.0502 | 0.0693
10 | M125V | 0.0739 | 0.0691 | 0.0758 | 0.0696 | 0.0838 |  | 0.0776 | 0.0646 |  |  |  | 0.0779 | 0.0712 | 0.0856 | 0.075 | 0.0625 | 0.0663 | 0.0885 | 
11 | K230E | 0.0455 | 0.0628 | 0.0798 | 0.0669 |  | 0.0646 |  |  |  | 0.0692 | 0.0627 |  |  | 0.0606 | 0.0583 | 0.0598 |  | 0.0669 | 0.0713
12 | T30W | 0.0731 | 0.0622 | 0.086 | 0.0743 | 0.0574 | 0.0534 |  |  | 0.0805 | 0.0845 | 0.092 |  | 0.0757 | 0.0633 |  |  | 0.0664 | 0.0643 | 
13 | K221Q | 0.0538 | 0.0572 | 0.0625 | 0.0692 | 0.057 | 0.0704 |  |  | 0.0602 | 0.0746 |  |  | 0.0614 | 0.057 | 0.0411 | 0.064 | 0.0642 | 0.0892 | 0.0508
14 | K100R | 0.0638 | 0.0451 | 0.128 | 0.069 | 0.0608 | 0.075 |  |  | 0.0236 |  | 0.0814 |  | 0.0674 | 0.0472 | 0.0537 |  |  | 0.065 | 0.0603
15 | V217Q | 0.0525 | 0.0537 | 0.0742 | 0.06 |  | 0.0549 |  | 0.0521 | 0.0637 | 0.0635 |  | 0.0676 |  | 0.0528 |  | 0.0484 | 0.0582 | 0.0583 | 0.0613
16 | S123K | 0.0685 | 0.0772 | 0.0883 | 0.0625 | 0.0726 | 0.0714 |  |  |  | 0.0726 | 0.0806 |  | 0.0667 | 0.0505 | 0.0479 | 0.0618 |  |  | 
17 | V217A | 0.0489 | 0.0631 | 0.0615 | 0.0592 |  | 0.0298 |  |  | 0.0618 | 0.0804 | 0.0672 |  | 0.0613 | 0.0563 |  |  | 0.0519 |  | 0.0512
18 | H143C | 0.0674 | 0.0617 | 0.0664 | 0.0681 |  |  | 0.06 | 0.0655 | 0.0574 | 0.0737 | 0.0607 | 0.0588 |  | 0.0677 |  |  |  | 0.0598 | 
19 | P155A | 0.0496 | 0.0708 | 0.104 | 0.0559 | 0.0657 | 0.0601 |  |  | 0.0547 | 0.0639 |  | 0.0615 |  | 0.0466 |  |  |  | 0.07 | 
20 | K68T | 0.0713 | 0.0846 | 0.0926 |  | 0.0871 | 0.0675 |  |  | 0.0622 | 0.0739 | 0.0543 | 0.0679 | 0.0867 | 0.0429 | 0.0449 | 0.0534 | 0.0678 |  | 0.0707
21 | T71L | 0.063 | 0.0731 | 0.0775 | 0.065 |  | 0.0625 |  |  | 0.0608 |  |  | 0.0707 |  | 0.0503 |  | 0.0293 |  |  | 
22 | I164C | 0.0603 | 0.0571 | 0.0609 | 0.0609 | 0.0592 | 0.0559 |  | 0.0483 | 0.061 | 0.0535 | 0.0697 | 0.0625 | 0.0686 | 0.0499 | 0.0596 | 0.0558 | 0.0744 | 0.0586 | 
23 | T115N | 0.0756 | 0.0689 | 0.0841 | 0.0612 |  |  |  |  |  |  | 0.0607 |  | 0.0789 |  | 0.0862 | 0.0613 |  | 0.0807 | 
24 | S123A | 0.0428 | 0.0794 | 0.0635 | 0.0633 | 0.0704 |  |  |  |  |  |  | 0.0694 | 0.0752 | 0.0629 | 0.0669 |  |  |  | 
25 | S201W | 0.057 | 0.0563 | 0.0556 | 0.0565 | 0.0606 | 0.0537 |  |  | 0.0573 | 0.0627 | 0.0618 | 0.0592 | 0.041 | 0.0555 |  | 0.0642 | 0.0544 | 0.0573 | 
26 | C111Y | 0.0529 | 0.0657 | 0.077 | 0.0523 | 0.0707 |  |  |  |  |  |  | 0.0669 | 0.0706 |  | 0.0348 | 0.0561 |  | 0.0845 | 
27 | S4R | 0.0895 | 0.0669 | 0.0867 | 0.0676 | 0.0784 | 0.0606 |  |  |  | 0.0771 | 0.0668 | 0.0626 | 0.0534 | 0.0553 | 0.0743 |  | 0.0343 | 0.0667 | 0.0677
